Values joined by “and” are separate entries in the source; they are usually repeats but may differ in a detail not shown here. Equal entries are not always repeated. The campaign covered roughly 16,000 compounds. About 40 (0.2%) were called active. Another 1% or so got no clear call; they are omitted. Calls follow the shape of the dose curve; as a rule, active = well fitted activation curve with a large enough effect; inconclusive = small, poorly fitted or top-dose-only effect, or another doubt; inactive = no such curve, though single readings can be large or run the other way. This is one part of the list.
Each compound was assayed against Rap guanine nucleotide exchange factor 4 (Homo sapiens) (UniProt Q8WZA2) (assay: Validation qHTS for agonist of cAMP-regulated guanine nucleotide exchange factor 4 (EPAC2)). Details: EPAC2 Rap1B BODIPY-GDP exchange, fluorescence; activation: active compounds read high.
Outline: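 Signal normalized against 6.5 mM cAMP as agonist control. Mix of EPAC2 (100 nM), RAP1B-BODIPY-GDP (250 nM) and GDP (50 uM) was read kinetically at 480/540 nm, every 5 min over 30 min, after 5 min room-temperature incubation with compound.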
% is scaled to controls: 0 for no effect and ±100 for the full control effect.
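Also: exchange makes BODIPY-GDP fluorescence drop when released from Rap1B; series mostly up to about 150 µM.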

Chain of UniProt Q8WZA2 (Q8WZA2 whole entry, looked up): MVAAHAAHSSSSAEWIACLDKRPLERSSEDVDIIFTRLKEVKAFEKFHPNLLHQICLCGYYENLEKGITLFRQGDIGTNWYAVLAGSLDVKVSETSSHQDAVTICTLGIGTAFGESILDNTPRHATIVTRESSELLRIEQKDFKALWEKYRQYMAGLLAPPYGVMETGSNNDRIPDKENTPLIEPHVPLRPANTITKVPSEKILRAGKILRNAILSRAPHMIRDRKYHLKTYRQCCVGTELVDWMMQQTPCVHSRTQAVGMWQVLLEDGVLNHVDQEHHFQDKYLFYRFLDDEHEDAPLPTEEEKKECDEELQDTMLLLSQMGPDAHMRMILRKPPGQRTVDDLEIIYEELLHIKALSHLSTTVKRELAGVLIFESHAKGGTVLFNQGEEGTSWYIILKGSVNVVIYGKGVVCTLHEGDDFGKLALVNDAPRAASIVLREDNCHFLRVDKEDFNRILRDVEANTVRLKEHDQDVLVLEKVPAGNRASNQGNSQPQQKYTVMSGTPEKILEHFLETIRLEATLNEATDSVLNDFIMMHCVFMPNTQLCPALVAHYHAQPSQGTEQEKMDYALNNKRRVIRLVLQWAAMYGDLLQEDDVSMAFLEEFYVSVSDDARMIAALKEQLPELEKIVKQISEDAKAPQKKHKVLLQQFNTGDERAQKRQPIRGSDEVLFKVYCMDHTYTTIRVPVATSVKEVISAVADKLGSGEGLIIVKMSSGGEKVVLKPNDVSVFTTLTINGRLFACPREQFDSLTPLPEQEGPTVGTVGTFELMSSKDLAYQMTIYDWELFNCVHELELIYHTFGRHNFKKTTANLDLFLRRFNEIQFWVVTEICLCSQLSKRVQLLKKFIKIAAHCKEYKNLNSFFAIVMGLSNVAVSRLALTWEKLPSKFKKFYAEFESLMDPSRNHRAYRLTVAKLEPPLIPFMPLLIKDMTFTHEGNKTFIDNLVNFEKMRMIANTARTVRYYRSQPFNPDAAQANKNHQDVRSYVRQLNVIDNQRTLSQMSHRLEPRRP

activation, inactive:
C(=C\c1ccccn1)/c1ccccc1 -0.0507%
COc1ccc(CCNc2ncnc3sc(C(=O)N4CCCCC4)c(C)c23)cc1OC -9.85%
COc1ccc(-c2nc3cnc(OC)nc3n(-c3ccc(OC)cc3)c2=O)cc1 12.8%
CNC(=O)c1ccccc1Sc1ccc2c(/C=C/c3ccccn3)n[nH]c2c1 6.59%
O=C(Nc1cccc(F)c1)N1CC[C@@]2(CCCN(C(=O)c3cccc(F)c3)C2)C1 -6.38%
O=S1(=O)CCOC[C@H](c2ccccc2)N1Cc1ccc(F)cc1 -8.24%
CC(CN1c2ccccc2Sc2ccccc21)N(C)C (stereo not given) 3.31% and -30.8% and -16.6%
O=c1c(-c2ccccc2)nc2cnc(N3CCOCC3)nc2n1Cc1ccc(F)cc1 -33.2%
CCNc1ncc2nc(-c3ccc(OC)cc3)c(=O)n(Cc3cccc(OC)c3)c2n1 -3.92%
NS(=O)(=O)c1cc2c(cc1C(F)(F)F)NC(Cc1ccccc1)NS2(=O)=O (stereo not given) 4.82% and -0.841%
O[C@@H](c1cc(C(F)(F)F)nc2c(C(F)(F)F)cccc12)[C@H]1CCCCN1 -16.2%
COCCn1c(=O)c(-c2ccccc2)nc2cnc(Oc3ccc(OC)cc3)nc21 -16.5%
c1csc(CNc2ncncc2-c2ccc3c(c2)OCO3)c1 -25.2%
Nc1nc2ccc([N+](=O)[O-])cc2s1 -9.84%
O=C(CCCCCCCCCCCCC1CCCC1)Nc1ccc(S(=O)(=O)c2ccc(NC(=O)CCCCCCCCCCCCC3CCCC3)cc2)cc1 -12.9%
C=O -7.37%
COc1cc(C[C@H]2C(=O)OC[C@@H]2Cc2ccc(OC)c(OC)c2)ccc1O -2.47%
O=C(c1csnn1)N1CCC2(CCN(Cc3cc(C(F)(F)F)cc(C(F)(F)F)c3)CC2)CC1 -22.9%
CS(=O)(=O)N1CCC[C@@]2(CCN(Cc3ccc(C#N)cc3)C2)C1 -14.3%
COc1ccc(CNc2ncncc2-c2ccccc2Cl)c(OC)c1 4.66%
CN1CCC(=O)N(CCSc2ccccc2)CC1 -19%
COc1ccc(-n2c(=O)c(C)nc3cnc(Oc4cccc(Cl)c4)nc32)cc1 7.74%
CC(O)CN(C)C (stereo not given) -23.8%
N#Cc1cccc(-c2nc(NCc3cccnc3)c3ccccc3n2)c1 -26.5%
COc1ccccc1CN1CCCC(n2cc(C(=O)N3CCCC3)nn2)C1 (stereo not given) -2.92%
COC(=O)C1=CO[C@@H](O[C@H]2OC(CO)C(O)C(O)C2O)C2C1CC(O)C2C (stereo not given in full) -12.9%
CCC(/C=C/C(C)C1CCC2C3CCC4=CC(=O)CC[C@@]4(C)C3CC[C@@]12C)C(C)C (stereo not given in full) 6.91%
CCCCC[C@H]1CN(C2CCCCC2)C(=O)[C@@H]1CC(=O)NCc1ccc(OC)cc1 -19.4%
COc1cc(-c2ccc(Cl)cn2)cc2c1OCCN(C(=O)c1ccccc1-n1cccn1)C2 -18.5%
COCCn1c(=O)c(-c2ccc(F)cc2)nc2cnc(N(C)C)nc21 -12%
COC(=O)C1CCCCN1Cc1nc(N(C)C)c2ccccc2n1 (stereo not given) 5.75%
CC(C)[C@H](CO)Nc1nc(Nc2cc(N)cc(Cl)c2)c2ncn(C(C)C)c2n1 -13.6%
COc1cc2c(c(OC)c1OC)-c1ccc(OC)c(=O)cc1[C@@H](NC(C)=O)CC2 -6.4% and -27.6%
CN(CCO)C(=O)c1cn(C2CCN(Cc3cccc4ccccc34)CC2)nn1 -6.32%
O=C(c1ccc(OCCN2CCCCC2)cc1)c1c(-c2ccc(O)cc2)sc2cc(O)ccc12 8.53%
COc1cccc(-c2nccc(-n3ccnc3)n2)c1 2.06%
O=C1c2ccccc2-c2n[nH]c3cccc1c23 4.77% [middle of 5 runs]
CC(=O)OC1CC[C@@]2(C)C(CC[C@@]3(C)C2CC=C2C4CC(C)(C)CC[C@]4(C(=O)O)CC[C@@]23C)C1(C)C (stereo not given in full) -10.9%
OC(c1ccc2c(c1)CN(Cc1cccc3nccnc13)CCO2)C1CCCCC1 (stereo not given) -5.21%
N#Cc1ccccc1-c1ccc2ncnc(NC3CC3)c2c1 -9.39%
CCCc1nc(C)c2c(=O)[nH]c(-c3cc(S(=O)(=O)N4CCN(CC)CC4)ccc3OCC)nn12 -3.46%
CC(Oc1ccccc1)C(=O)N[C@@H]1C(=O)N2[C@@H]1SC(C)(C)[C@@H]2C(=O)OCc1ccccc1 (stereo not given in full) -32.9%
C[N+]1(C)[C@@H]2CC(OC(=O)[C@H](CO)c3ccccc3)C[C@H]1[C@H]1O[C@@H]12 (stereo not given in full) -10.5%
COc1ccc(NC(=O)N2CCCC3(CCN(C(=O)c4c(C)noc4C)CC3)C2)cc1 -9.38%
NS(=O)(=O)c1cc2c(cc1Cl)N[C@@H]([C@@H]1C[C@@H]3C=C[C@H]1C3)NS2(=O)=O -20.7%
O=C(O)CCc1nc2ccccc2[nH]1 2.57%
CC(C)(O)C#Cc1ccc(CN2CCc3nnc(CNC(=O)c4cccc(F)c4)n3CC2)cc1 -3.76%
CCC(C)(CN(C)C)OC(=O)c1ccccc1 (stereo not given) -10.4%
C[N+]1(CC(=O)c2ccc(I)cc2)CCCc2ccccc21 (stereo not given) -5.16%
OCc1ccc(-c2nn(Cc3ccccc3)c3ccccc23)o1 2.92%
NCCC(=O)N[C@@H](Cc1cnc[nH]1)C(=O)O -5.04%
NC(=O)c1cccnc1 -9.28%
CO/N=C(\C(=O)N[C@@H]1C(=O)N2C(C(=O)O)=C(COC(C)=O)CS[C@H]12)c1csc(N)n1 (stereo in doubt) 7.59%
Cc1cnc(CNc2cc(-c3cccc(NS(C)(=O)=O)c3)ncn2)cn1 -1.69%
Cc1cccc(CNc2ncnc3ccc(-c4ccccc4CN(C)C)cc23)c1 -16%
